# From the supplement of paper PMC8728848
# The list shows a part of the results.
# Experiments:
# Assay in all cases: glycan array binding signal (z-score within array); higher = stronger binding
# Details in all cases: glycan notation: IUPAC condensed, linker removed
# Gal4S6S(b1-4)GlcNAc = biological target: Gal4S6S(b1-4)GlcNAc
# Outline: (§1)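 Glycan array binding is given as a within-array Z-score, which can be read as non-binding when negative. The arrays, 3228 of them, came from the Consortium for Functional Glycomics database and were retained only where the protein sequence was available. Z-scores were averaged across arrays of the same protein sequence at different concentrations or buffers and across linkers.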
# Gal6S(b1-4)Glc = biological target: Gal6S(b1-4)Glc
# Outline: as §1
# Gal6S(b1-4)Glc6S = biological target: Gal6S(b1-4)Glc6S
# Outline: as §1
# Gal6S(b1-4)GlcNAc = biological target: Gal6S(b1-4)GlcNAc
# Outline: as §1
# GalNAc(a1-3)Gal = biological target: GalNAc(a1-3)Gal
# Outline: as §1
# GalNAc(a1-3)GalNAc = biological target: GalNAc(a1-3)GalNAc
# Outline: as §1
# [1] = biological target: GalNAc(b1-3)Gal(a1-4)Gal(b1-4)GlcNAc
# Outline: as §1
# GalNAc(b1-3)GalNAc = biological target: GalNAc(b1-3)GalNAc
# Outline: as §1
# GalNAc(b1-4)GlcNAc = biological target: GalNAc(b1-4)GlcNAc
# Outline: as §1
# Glc(a1-4)Glc = biological target: Glc(a1-4)Glc
# Outline: as §1
# Glc(a1-6)Glc(a1-6)Glc = biological target: Glc(a1-6)Glc(a1-6)Glc
# Outline: as §1
# Glc(b1-4)Glc = biological target: Glc(b1-4)Glc
# Outline: as §1
# Glc(b1-6)Glc = biological target: Glc(b1-6)Glc
# Outline: as §1
# GlcA(b1-3)Gal = biological target: GlcA(b1-3)Gal
# Outline: as §1
# GlcA(b1-6)Gal = biological target: GlcA(b1-6)Gal
# Outline: as §1
# [2] = biological target: GlcNAc(a1-3)Gal(b1-4)GlcNAc
# Outline: as §1
# [3] = biological target: GlcNAc(a1-6)Gal(b1-4)GlcNAc
# Outline: as §1
# [4] = biological target: GlcNAc(b1-2)Gal(b1-3)GalNAc
# Outline: as §1
# [5] = biological target: GlcNAc(b1-2)Man(a1-3)[GlcNAc(b1-2)Man(a1-6)]Man(b1-4)GlcNAc(b1-4)GlcNAc
# Outline: as §1
# GlcNAc(b1-3)Gal = biological target: GlcNAc(b1-3)Gal
# Outline: as §1
# [6] = biological target: GlcNAc(b1-3)Gal(b1-3)GalNAc
# Outline: as §1
# GlcNAc(b1-3)Gal(b1-4)Glc = biological target: GlcNAc(b1-3)Gal(b1-4)Glc
# Outline: as §1
# [7] = biological target: GlcNAc(b1-3)Gal(b1-4)GlcNAc
# Outline: as §1
# [8] = biological target: GlcNAc(b1-3)Gal(b1-4)GlcNAc(b1-3)Gal(b1-4)GlcNAc
# Outline: as §1
# GlcNAc(b1-3)GalNAc = biological target: GlcNAc(b1-3)GalNAc
# Outline: as §1
# [9] = biological target: GlcNAc(b1-3)[GlcNAc(b1-6)]Gal(b1-4)GlcNAc
# Outline: as §1
# [10] = biological target: GlcNAc(b1-3)[GlcNAc(b1-6)]GalNAc
# Outline: as §1
# [11] = biological target: GlcNAc(b1-3)[GlcNAc(b1-6)]GlcNAc(b1-4)GlcNAc
# Outline: as §1
# [12] = biological target: GlcNAc(b1-4)Gal(b1-4)GlcNAc
# Outline: as §1
# [13] = biological target: GlcNAc(b1-4)GlcNAc(b1-4)GlcNAc
# Outline: as §1
# [14] = biological target: GlcNAc(b1-4)GlcNAc(b1-4)GlcNAc(b1-4)GlcNAc(b1-4)GlcNAc
# Outline: as §1
# [15] = biological target: GlcNAc(b1-4)GlcNAc(b1-4)GlcNAc(b1-4)GlcNAc(b1-4)GlcNAc(b1-4)GlcNAc
# Outline: as §1
# [16] = biological target: GlcNAc(b1-4)[GlcNAc(b1-6)]GalNAc
# Outline: as §1
# [17] = biological target: GlcNAc(b1-6)Gal(b1-4)GlcNAc
# Outline: as §1
# GlcNAc(b1-6)GalNAc = biological target: GlcNAc(b1-6)GalNAc
# Outline: as §1
# Kdn(a2-3)Gal(b1-3)GlcNAc = biological target: Kdn(a2-3)Gal(b1-3)GlcNAc
# Outline: as §1
# Kdn(a2-3)Gal(b1-4)GlcNAc = biological target: Kdn(a2-3)Gal(b1-4)GlcNAc
# Outline: as §1
# [18] = biological target: Man(a1-2)Man(a1-2)Man(a1-3)Man
# Outline: as §1
# [19] = biological target: Man(a1-2)Man(a1-2)Man(a1-6)[Man(a1-3)]Man
# Outline: as §1
# Man(a1-2)Man(a1-3)Man = biological target: Man(a1-2)Man(a1-3)Man
# Outline: as §1
# [20] = biological target: Man(a1-2)Man(a1-3)[Man(a1-2)Man(a1-6)]Man
# Outline: as §1
# [21] = biological target: Man(a1-2)Man(a1-3)[Man(a1-2)Man(a1-6)]Man(a1-6)[Man(a1-2)Man(a1-2)Man(a1-3)]Man(b1-4)GlcNAc(b1-4)GlcNAc
# Outline: as §1
# [22] = biological target: Man(a1-2)Man(a1-3)[Man(a1-6)]Man(a1-6)[Man(a1-2)Man(a1-3)]Man(b1-4)GlcNAc(b1-4)GlcNAc
# Outline: as §1
# [23] = biological target: Man(a1-2)Man(a1-6)[Man(a1-3)]Man(a1-6)[Man(a1-2)Man(a1-2)Man(a1-3)]Man(b1-4)GlcNAc(b1-4)GlcNAc
# Outline: as §1
# Man(a1-3)[Man(a1-6)]Man = biological target: Man(a1-3)[Man(a1-6)]Man
# Outline: as §1
# [24] = biological target: Man(a1-3)[Man(a1-6)]Man(a1-6)[Man(a1-2)Man(a1-3)]Man(b1-4)GlcNAc(b1-4)GlcNAc
# Outline: as §1
# [25] = biological target: Man(a1-3)[Man(a1-6)]Man(a1-6)[Man(a1-3)]Man(b1-4)GlcNAc(b1-4)GlcNAc
# Outline: as §1
# [26] = biological target: Man(a1-3)[Man(a1-6)]Man(b1-4)GlcNAc(b1-4)GlcNAc
# Outline: as §1
# Man(b1-4)GlcNAc = biological target: Man(b1-4)GlcNAc
# Outline: as §1
# Neu5Ac(a2-3)Gal = biological target: Neu5Ac(a2-3)Gal
# Outline: as §1
# [27] = biological target: Neu5Ac(a2-3)Gal(b1-3)GalNAc
# Outline: as §1
# [28] = biological target: Neu5Ac(a2-3)Gal(b1-3)GalNAc(b1-3)Gal(a1-4)Gal(b1-4)Glc
# Outline: as §1
binder,measurement,setting,value
CLL-1 (Homo sapiens) (protein) MWIDFFTYSSMSEEVTYADLQFQNSSEMEKIPEIGKFGEKAPPAPSHVWRPAALFLTLLCLLLLIGLGVLASMFHVTLKIEMKKMNKLQNISEELQRNISLQLMSNMNISNKIRNLSTTLQTIATKLCRELYSKEQEHKCKPCPRRWIWHKDSCYFLSDDVQTWQESKMACAAQNASLLKINNKNALEFIKSQSRSYDYWLGLSPEEDSTRGMRVDNIINSSAWVIRNAPDLNNMYCGYINRLYVQYYHCTYKKRMICEKMANPVQLGSTYFREA,glycan array binding signal (z-score),Gal4S6S(b1-4)GlcNAc,0.267
same,glycan array binding signal (z-score),Gal6S(b1-4)Glc,0.398
same,glycan array binding signal (z-score),Gal6S(b1-4)Glc6S,0.275
same,glycan array binding signal (z-score),Gal6S(b1-4)GlcNAc,-0.093
same,glycan array binding signal (z-score),GalNAc(a1-3)Gal,-0.122
same,glycan array binding signal (z-score),GalNAc(a1-3)GalNAc,-0.243
same,glycan array binding signal (z-score),[1],-0.275
same,glycan array binding signal (z-score),GalNAc(b1-3)GalNAc,-0.035
same,glycan array binding signal (z-score),GalNAc(b1-4)GlcNAc,-0.221
same,glycan array binding signal (z-score),Glc(a1-4)Glc,1
same,glycan array binding signal (z-score),Glc(a1-6)Glc(a1-6)Glc,-0.11
same,glycan array binding signal (z-score),Glc(b1-4)Glc,-0.244
same,glycan array binding signal (z-score),Glc(b1-6)Glc,-0.306
same,glycan array binding signal (z-score),GlcA(b1-3)Gal,-0.159
same,glycan array binding signal (z-score),GlcA(b1-6)Gal,-0.161
same,glycan array binding signal (z-score),[2],-0.303
same,glycan array binding signal (z-score),[3],-0.315
same,glycan array binding signal (z-score),[4],-0.141
same,glycan array binding signal (z-score),[5],-0.128
same,glycan array binding signal (z-score),GlcNAc(b1-3)Gal,-0.18
same,glycan array binding signal (z-score),[6],-0.103
same,glycan array binding signal (z-score),GlcNAc(b1-3)Gal(b1-4)Glc,-0.109
same,glycan array binding signal (z-score),[7],-0.178
same,glycan array binding signal (z-score),[8],-0.274
same,glycan array binding signal (z-score),GlcNAc(b1-3)GalNAc,-0.228
same,glycan array binding signal (z-score),[9],-0.164
same,glycan array binding signal (z-score),[10],-0.19
same,glycan array binding signal (z-score),[11],-0.278
same,glycan array binding signal (z-score),[12],-0.228
same,glycan array binding signal (z-score),[13],-0.145
same,glycan array binding signal (z-score),[14],-0.221
same,glycan array binding signal (z-score),[15],-0.243
same,glycan array binding signal (z-score),[16],-0.247
same,glycan array binding signal (z-score),[17],-0.256
same,glycan array binding signal (z-score),GlcNAc(b1-6)GalNAc,-0.211
same,glycan array binding signal (z-score),Kdn(a2-3)Gal(b1-3)GlcNAc,0.154
same,glycan array binding signal (z-score),Kdn(a2-3)Gal(b1-4)GlcNAc,-0.099
same,glycan array binding signal (z-score),[18],0.01
same,glycan array binding signal (z-score),[19],-0.185
same,glycan array binding signal (z-score),Man(a1-2)Man(a1-3)Man,-0.156
same,glycan array binding signal (z-score),[20],-0.22
same,glycan array binding signal (z-score),[21],-0.173
same,glycan array binding signal (z-score),[22],-0.048
same,glycan array binding signal (z-score),[23],-0.179
same,glycan array binding signal (z-score),Man(a1-3)[Man(a1-6)]Man,-0.245
same,glycan array binding signal (z-score),[24],-0.104
same,glycan array binding signal (z-score),[25],-0.209
same,glycan array binding signal (z-score),[26],-0.076
same,glycan array binding signal (z-score),Man(b1-4)GlcNAc,-0.227
same,glycan array binding signal (z-score),Neu5Ac(a2-3)Gal,-0.285
same,glycan array binding signal (z-score),[27],-0.176
same,glycan array binding signal (z-score),[28],-0.108
